Experimental data taken from the supplement of paper PMC4967469.
pIC50: −log10 of the molar value. By IC50 is meant the dose at which the fit gives 50% viability; fits outside the tested doses are given as limits. AUC sums up the same curve from the lowest dose to the 256-fold higher top dose: 1 means no effect, lower means more sensitive. Where an entry number is given, a second screen of the drug exists; the two often differ.

Compound: CS(=O)(=O)N1CCN(Cc2cc3nc(-c4cccc5[nH]ncc45)nc(N4CCOCC4)c3s2)CC1 [GDC0941]
Experiment: Viability of human cancer cell lines after 72 h of drug (GDSC screen)
Conditions: screen: GDSC drug entry 1058
Procedure: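 Human cancer cell lines in 384-well plates, medium with 10% serum, drug for 72 h over a 256-fold dose range (nine 2-fold or five 4-fold steps up to the top dose). Adherent lines were fixed and stained with the nucleic acid dye Syto60, suspension lines read with resazurin; signal relative to control wells, capped at 0 and 100%. One two-parameter sigmoid per drug and line, fitted in a mixed model over all curves with the slope shared within a line.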

Row | Cell Line | AUC | pIC50
1 | LOU-NH91 (lung squamous cell carcinoma, adherent, top dose 4 µM) | 0.859 | 5.42
2 | LOUCY (T-cell lymphoblastic leukaemia, suspension, top dose 4 µM) | 0.828 | 5.73
3 | LOXIMVI (melanoma, semi-adherent, top dose 4 µM) | 0.806 | 5.75
4 | LS-180 (large intestine, adherent, top dose 4 µM) | 0.91 | < 5.40
5 | LS-411N (large intestine, adherent, top dose 4 µM) | 0.903 | < 5.40
6 | LS-513 (large intestine, adherent, top dose 4 µM) | 0.863 | 5.44
7 | LS-1034 (large intestine, adherent, top dose 4 µM) | 0.96 | < 5.40
8 | LU-65 (large cell lung carcinoma, suspension, top dose 4 µM) | 0.987 | < 5.40
9 | LU-134-A (small cell lung carcinoma, suspension, top dose 4 µM) | 0.766 | 5.80
10 | LU-135 (small cell lung carcinoma, suspension, top dose 4 µM) | 0.839 | 5.68
11 | LU-165 (small cell lung carcinoma, suspension, top dose 4 µM) | 0.981 | < 5.40
12 | LXF-289 (lung adenocarcinoma, adherent, top dose 4 µM) | 0.65 | 6.19
13 | LoVo (large intestine, adherent, top dose 4 µM) | 0.682 | 6.09
14 | M059J (glioma, adherent, top dose 4 µM) | 0.94 | < 5.40
15 | MC116 (B-cell lymphoma, suspension, top dose 4 µM) | 0.999 | < 5.40
16 | MC-CAR (haematopoietic neoplasm, suspension, top dose 4 µM) | 0.691 | 6.10
17 | MC-IXC (neuroblastoma, adherent, top dose 4 µM) | 0.936 | 5.43
18 | MDA-MB-157 (breast, adherent, top dose 4 µM) | 0.876 | < 5.40
19 | MDA-MB-330 (breast, adherent, top dose 4 µM) | 0.772 | 5.75
20 | MDA-MB-415 (breast, adherent, top dose 4 µM) | 0.756 | 5.74

Row | Cell Line | AUC | pIC50
21 | MDA-MB-436 (breast, adherent, top dose 4 µM) | 0.782 | 5.67
22 | MDST8 (large intestine, adherent, top dose 4 µM) | 0.921 | < 5.40
23 | ME-1 (acute myeloid leukaemia, suspension, top dose 4 µM) | 0.986 | < 5.40
24 | ME-180 (cervix, adherent, top dose 4 µM) | 0.684 | 6.08
25 | MEG-01 (chronic myeloid leukaemia, suspension, top dose 4 µM) | 0.961 | < 5.40
26 | MEL-HO (melanoma, adherent, top dose 4 µM) | 0.778 | 5.79
27 | MEL-JUSO (melanoma, adherent, top dose 4 µM) | 0.796 | 5.67
28 | MES-SA (uterus, adherent, top dose 4 µM) | 0.825 | 5.71
29 | MFE-280 (endometrium, adherent, top dose 4 µM) | 0.812 | 5.54
30 | MFE-296 (endometrium, adherent, top dose 4 µM) | 0.942 | < 5.40
31 | MFE-319 (endometrium, adherent, top dose 2 µM) | 0.895 | < 5.70
32 | MFH-ino (soft tissue, adherent, top dose 4 µM) | 0.701 | 5.99
33 | MHH-CALL-2 (B-cell leukaemia, suspension, top dose 4 µM) | 0.987 | < 5.40
34 | MHH-ES-1 (Ewing sarcoma, adherent, top dose 4 µM) | 0.804 | 5.71
35 | MHH-NB-11 (neuroblastoma, adherent, top dose 4 µM) | 0.847 | 5.47
36 | MHH-PREB-1 (B-cell leukaemia, suspension, top dose 4 µM) | 0.455 | 6.72
37 | MKN1 (stomach, adherent, top dose 2 µM) | 0.859 | 5.74
38 | MKN7 (stomach, adherent, top dose 4 µM) | 0.745 | 5.79
39 | MKN28 (stomach, adherent, top dose 4 µM) | 0.904 | < 5.40
40 | ML-2 (acute myeloid leukaemia, suspension, top dose 4 µM) | 0.712 | 6.04

Row | Cell Line | AUC | pIC50
41 | MLMA (hairy cell leukaemia, semi-adherent, top dose 4 µM) | 0.921 | < 5.40
42 | MN-60 (B-cell leukaemia, suspension, top dose 4 µM) | 0.878 | < 5.40
43 | MOG-G-CCM (glioma, adherent, top dose 4 µM) | 0.792 | 5.67
44 | MOG-G-UVW (glioma, adherent, top dose 4 µM) | 0.831 | 5.61
45 | MOLM-16 (acute myeloid leukaemia, suspension, top dose 4 µM) | 0.424 | 6.80
46 | MOLT-4 (lymphoblastic leukaemia, suspension, top dose 4 µM) | 0.455 | 6.71
47 | MOLT-13 (T-cell lymphoblastic leukaemia, suspension, top dose 4 µM) | 0.926 | < 5.40
48 | MOLT-16 (T-cell lymphoblastic leukaemia, suspension, top dose 4 µM) | 0.962 | < 5.40
49 | MONO-MAC-6 (acute myeloid leukaemia, suspension, top dose 4 µM) | 0.506 | 6.59
50 | MPP-89 (mesothelioma, adherent, top dose 4 µM) | 0.79 | 5.62
51 | MRK-nu-1 (breast, suspension, top dose 4 µM) | 0.984 | < 5.40
52 | MS751 (cervix, adherent, top dose 4 µM) | 0.925 | < 5.40
53 | MS-1 (small cell lung carcinoma, suspension, top dose 4 µM) | 0.877 | 5.48
54 | MSTO-211H (mesothelioma, adherent, top dose 4 µM) | 0.84 | 5.62
55 | MY-M12 (leukaemia, suspension, top dose 4 µM) | 0.715 | 5.95
56 | MZ1-PC (pancreas, adherent, top dose 4 µM) | 0.967 | < 5.40
57 | MZ2-MEL (melanoma, adherent, top dose 4 µM) | 0.703 | 5.98
58 | MZ7-mel (melanoma, adherent, top dose 4 µM) | 0.967 | < 5.40
59 | Mo-T (hairy cell leukaemia, suspension, top dose 4 µM) | 0.487 | 6.64
